This passage reports cAMP reporter score and surface expression score results from the GPR68 mutational scans of Howard et al. (2025).

B1: GPR68, Q15743 (parent)
chain: MGNITADNSSMSCTIDHTIHQTLAPVVYVTVLVVGFPANCLSLYFGYLQIKARNELGVYLCNLTVADLFYICSLPFWLQYVLQHDNWSHGDLSCQVCGILLYENIYISVGFLCCISVDRYLAVAHPFRFHQFRTLKAAVGVSVVIWAKELLTSIYFLMHEEVIEDENQHRVCFEHYPIQAWQRAINYYRFLVGFLFPICLLLASYQGILRAVRRSHGTQKSRKDQIQRLVLSTVVIFLACFLPYHVLLLVRSVWEASCDFAKGVFNAYHFSLLLTSFNCVADPVLYCFVSETTHRDLARLRGACLAFLTCSRTGRAREAYPLGAPEASGKSGAQGEEPELLTKLHPAFQTPNSPGSGGFPTGRLA

Scores with a large standard error are left out. Two further conditions of the source, in which the scores hardly spread, are not listed. In variant names, del marks residues removed and ins residues inserted between the two positions. For some assays here: How much ogerin was present is not stated here.

Data set [1] covers variants of B1. Nature of the data set: cAMP reporter score (Enrich2 score, wild type = 0); higher = more signal; HEK293T, FACS bins.
The variants in data set [2] derive from B1. Nature of the data set: surface expression score (Enrich2 score, wild type = 0); higher = more signal; HEK293T, FACS bins.

In the case of V139P, the cAMP reporter score was -1.04 in data set [1] (pH 5.5); 0.041 in data set [1] (pH 6); -1.46 in data set [1] (pH 6, modulator: ogerin). Moreover, in data set [2], the surface expression score is -2.4.
As for V139R, the cAMP reporter score was -0.385 in data set [1] (pH 5.5); 2.38 in data set [1] (pH 6); -0.048 in data set [1] (pH 6, modulator: ogerin); -0.426 in data set [1] (pH 6.5, modulator: ogerin).
For V139E, the cAMP reporter score in data set [1] (pH 5.5) is -0.329; in data set [1] (pH 6), -1.92; in data set [1] (pH 6, modulator: ogerin) it was -1.99; in data set [1] (pH 6.5, modulator: ogerin), -1.5.
Take V139H: the cAMP reporter score in data set [1] (pH 5.5) is -2.42; in data set [1] (pH 6), -0.785; in data set [1] (pH 6, modulator: ogerin), -1.4; in data set [1] (pH 6.5, modulator: ogerin) it was -2.06. The surface expression score in data set [2] was -2.73.
On to V139T, for which the cAMP reporter score is -0.365 in data set [1] (pH 5.5); -0.214 in data set [1] (pH 6); 0.234 in data set [1] (pH 6, modulator: ogerin). Also, the surface expression score in data set [2] was -0.879.
On to V139Q, for which the cAMP reporter score was -1.22 in data set [1] (pH 5.5); -0.438 in data set [1] (pH 6); -0.401 in data set [1] (pH 6, modulator: ogerin); -1.04 in data set [1] (pH 6.5, modulator: ogerin). For the same variant, in data set [2], the surface expression score was -1.56.
Regarding V139N, the cAMP reporter score in data set [1] (pH 5.5) was -0.822; in data set [1] (pH 6), -0.782; in data set [1] (pH 6, modulator: ogerin), -0.675; in data set [1] (pH 6.5, modulator: ogerin) it was -1.35.
For V139A, the cAMP reporter score in data set [1] (pH 5.5) is 0.189; in data set [1] (pH 6), 0.081; in data set [1] (pH 6, modulator: ogerin) it was 0.063; in data set [1] (pH 6.5, modulator: ogerin) it was -0.659. For the same variant, in data set [2], the surface expression score was -0.051.
As for V139S, the cAMP reporter score is -0.073 in data set [1] (pH 5.5); -0.337 in data set [1] (pH 6, modulator: ogerin); -0.787 in data set [1] (pH 6.5, modulator: ogerin). Further, the surface expression score in data set [2] was -1.19.
For V141_S142insG, the cAMP reporter score in data set [1] (pH 5.5) is -1.16; in data set [1] (pH 6), -0.727; in data set [1] (pH 6, modulator: ogerin) it was -0.15; in data set [1] (pH 6.5, modulator: ogerin), 0.098. For the same variant, the surface expression score in data set [2] is -1.86.
Regarding A138_G140del, the figures for the cAMP reporter score in data set [1] (pH 5.5) and in data set [1] (pH 6) were -1.41 and -0.484, respectively. Moreover, the surface expression score in data set [2] is -4.37.
Take A137_V139del: the cAMP reporter score was -1.47 in data set [1] (pH 5.5); -1.17 in data set [1] (pH 6); -0.651 in data set [1] (pH 6, modulator: ogerin); -0.44 in data set [1] (pH 6.5, modulator: ogerin). The surface expression score in data set [2] is -2.62.
As for A138_V139insGS, the cAMP reporter score in data set [1] (pH 5.5) was -2.01; in data set [1] (pH 6) it was -0.895; in data set [1] (pH 6.5, modulator: ogerin) it was -1.11. The surface expression score in data set [2] was -1.61.
Regarding L135del, the cAMP reporter score was -0.391 in data set [1] (pH 5.5); -0.806 in data set [1] (pH 6); -0.95 in data set [1] (pH 6.5, modulator: ogerin).
Consider V139_G140insG, for which the cAMP reporter score in data set [1] (pH 5.5) is -1.49; in data set [1] (pH 6), -1.33; in data set [1] (pH 6, modulator: ogerin), -1.26; in data set [1] (pH 6.5, modulator: ogerin), -1.18. In addition, in data set [2], the surface expression score is -2.77.
As to S142_V143del, the cAMP reporter score in data set [1] (pH 5.5) is -2.14; in data set [1] (pH 6.5, modulator: ogerin) it was -0.748. Besides, the surface expression score in data set [2] is -3.13.
Regarding L135_A137del, the cAMP reporter score was -0.797 in data set [1] (pH 5.5); -0.683 in data set [1] (pH 6); -0.62 in data set [1] (pH 6, modulator: ogerin); -0.961 in data set [1] (pH 6.5, modulator: ogerin). Besides, the surface expression score in data set [2] is -3.15.
For V141K, the cAMP reporter score in data set [1] (pH 5.5) is -1.14; in data set [1] (pH 6) it was -0.752; in data set [1] (pH 6, modulator: ogerin) it was -3.21; in data set [1] (pH 6.5, modulator: ogerin), -1.33. Besides, the surface expression score in data set [2] was -2.03.
V141I: the cAMP reporter score in data set [1] (pH 5.5) stood at 1.12; in data set [1] (pH 6) it was 1.14; in data set [1] (pH 6, modulator: ogerin), 0.995; in data set [1] (pH 6.5, modulator: ogerin), 0.786. In data set [2], the surface expression score is 0.65.
Consider V141Q, for which the cAMP reporter score in data set [1] (pH 5.5) is -0.974; in data set [1] (pH 6) it was -1.73; in data set [1] (pH 6, modulator: ogerin), -0.405; in data set [1] (pH 6.5, modulator: ogerin), -1.46. The surface expression score in data set [2] was -2.35.
Regarding V141G, the cAMP reporter score is -1.2 in data set [1] (pH 5.5); -1.27 in data set [1] (pH 6); -1.63 in data set [1] (pH 6, modulator: ogerin). In data set [2], the surface expression score was -2.76.
Regarding V141P, the cAMP reporter score in data set [1] (pH 5.5) is -2.03; in data set [1] (pH 6), -1.87; in data set [1] (pH 6, modulator: ogerin), -1.36; in data set [1] (pH 6.5, modulator: ogerin), -0.237. Moreover, in data set [2], the surface expression score was -1.82.
Consider V141Y, for which the cAMP reporter score in data set [1] (pH 5.5) was -1.44; in data set [1] (pH 6, modulator: ogerin), -1.93; in data set [1] (pH 6.5, modulator: ogerin), -0.895.
On to V141C, for which the cAMP reporter score in data set [1] (pH 5.5) was 0.076; in data set [1] (pH 6), -0.355; in data set [1] (pH 6, modulator: ogerin), -0.704; in data set [1] (pH 6.5, modulator: ogerin), -0.651. In addition, the surface expression score in data set [2] is -1.03.
In the same order, the values of V141H are -1.25, -1.17, -1.75, -0.958 and -2.54.
On to V141W, for which the cAMP reporter score was -0.74 in data set [1] (pH 5.5); -1.18 in data set [1] (pH 6); -1.01 in data set [1] (pH 6, modulator: ogerin); -1.9 in data set [1] (pH 6.5, modulator: ogerin).
With V141N, the cAMP reporter score is -0.098 in data set [1] (pH 5.5); -0.633 in data set [1] (pH 6); -0.309 in data set [1] (pH 6, modulator: ogerin); -0.765 in data set [1] (pH 6.5, modulator: ogerin). In data set [2], the surface expression score is -1.85.
In the same order, the values of V141F are -1.01, -1.82, -0.992, -1.65 and -1.12.
V141M: the cAMP reporter score in data set [1] (pH 5.5) is 0.797; in data set [1] (pH 6, modulator: ogerin), -0.95; in data set [1] (pH 6.5, modulator: ogerin) it was 0.677. In data set [2], the surface expression score is -0.424.
Take V141S: the cAMP reporter score was -0.109 in data set [1] (pH 5.5); -0.97 in data set [1] (pH 6, modulator: ogerin); -0.172 in data set [1] (pH 6.5, modulator: ogerin).
For V141T, the cAMP reporter score in data set [1] (pH 5.5) is -0.158; in data set [1] (pH 6) it was -1.21; in data set [1] (pH 6, modulator: ogerin), -0.561; in data set [1] (pH 6.5, modulator: ogerin), -1.31. Further, in data set [2], the surface expression score was -0.821.
With V141L, the cAMP reporter score in data set [1] (pH 5.5) was -0.836; in data set [1] (pH 6), -0.395; in data set [1] (pH 6, modulator: ogerin) it was -0.817; in data set [1] (pH 6.5, modulator: ogerin), -1.26. For the same variant, the surface expression score in data set [2] is -1.35.
For V141D, the cAMP reporter score in data set [1] (pH 5.5) was -1.42; in data set [1] (pH 6) it was -0.939; in data set [1] (pH 6.5, modulator: ogerin), -0.668.
Turning to L135_K136insGSG, the cAMP reporter score in data set [1] (pH 5.5) is -1.71; in data set [1] (pH 6.5, modulator: ogerin), -0.98. Further, the surface expression score in data set [2] was -2.43.
